Common to all, as to assay: Primary Screen for Target Class Profiling of Small Molecule Inhibitors of Methyltransferases
Assay [1] concerns the target Glycine N-methyltransferase (Homo sapiens) (UniProt Q14749). To be noted: purified enzyme, MTase-Glo SAH luminescence; measured here: GNMT inhibition; at 40 µM; stronger effect = lower value. The method, boiled down:
(§1)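 Each enzyme was reacted with SAM and its substrate, with compounds tested once at 40 uM; SAH formed was read by MTase-Glo luminescence.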

Assay [2] addresses Guanidinoacetate N-methyltransferase (Homo sapiens) (UniProt Q14353). To be noted: purified enzyme, MTase-Glo SAH luminescence; measured here: GAMT inhibition; at 40 µM; stronger effect = lower value. The method, boiled down: as §1
Assay [3] has as its target Histamine N-methyltransferase (Homo sapiens) (UniProt P50135). To be noted: purified enzyme, MTase-Glo SAH luminescence; measured here: HNMT inhibition; at 40 µM; stronger effect = lower value. The gist of the method:
as §1

In assay [4] the target is Nicotinamide N-methyltransferase (Homo sapiens) (UniProt P40261). To be noted: purified enzyme, MTase-Glo SAH luminescence; measured here: NNMT inhibition; at 40 µM; stronger effect = lower value. The gist of the method:
as §1

Assay [5] concerns the target Phenylethanolamine N-methyltransferase (Homo sapiens) (UniProt P11086). To be noted: purified enzyme, MTase-Glo SAH luminescence; measured here: PNMT inhibition; at 40 µM; stronger effect = lower value. The method, boiled down:
as §1

This is one part of the list. Further columns of the screen follow, without active or inactive calls.
On the % scale 0 is the no-effect control and ±100 the full control effect.

Consider `CN1C(=O)c2cc(C(=O)NC3CC3)nn2CC1(C)C(=O)NCc1ccccc1` (stereo not drawn), for which the activity change, negative = inhibition in assay [1] is 2.1%; in assay [2], -0.784%; in assay [3] it was -0.349%; in assay [4] it was -0.775%; in assay [5], -2.26%.
In the same order, the values of `CC(C)Oc1ccc(CN2C(=O)c3cc4sccc4n3CC2(C)C(=O)NC2CCCCC2C)cc1` (stereo not drawn) are -0.668%, 4.1%, -2.93%, -2.29% and -5.43%.
Regarding `Fc1ccccc1C1Nc2ccc(Br)cc2C2C=CCC21` (stereo not drawn), the activity change, negative = inhibition in assay [1] was -9.87%; in assay [2], -3.34%; in assay [3] it was -10.2%; in assay [4], -18.5%; in assay [5], -11.1%.
As to `CCCS(=O)(=O)N1CCC(c2noc(-c3cccnc3)n2)C1` (stereo not drawn), the activity change, negative = inhibition was 1.59% in assay [1]; 1.01% in assay [2]; 0.245% in assay [3]; -3.59% in assay [4]; 13.1% in assay [5].
With `COCCNC(=O)CCc1nnc2n(Cc3ccccc3)c(=O)c3ccccc3n12`, the activity change, negative = inhibition was -2.68% in assay [1]; 0% in assay [2]; 8.86% in assay [3]; 12.9% in assay [4]; 3.52% in assay [5].
In the same order, the values of `CS(=O)(=O)c1ccc(CN2C[C@H](O)C[C@H]2c2nc(C3CC3)no2)cc1` are -3.57%, -7.43%, 0.525%, -11.5% and -8.21%.
In the same order, the values of `Cc1ccc(Cn2c(=O)c3ccccc3n3c(=O)n(CC(=O)Nc4ccc(F)cc4)nc23)cc1` are 6.56%, 2.1%, 9.86%, 7.74% and 6.03%.
In the same order, the values of `COc1ccc(NC(=O)c2ncn3c2C(=O)N(C2CC2)C(C)(C(=O)NCc2ccc(F)cc2)C3)cc1Cl` (stereo not drawn) are -0.172%, 0.826%, 12.7%, 2.8% and 5.42%.
For `CCNS(=O)(=O)c1ccc2[nH]c(=O)[nH]c2c1`, the activity change, negative = inhibition in assay [1] was 4.68%; in assay [2] it was 0%; in assay [3] it was 2.19%; in assay [4], -0.676%; in assay [5], -2.9%.
For the molecule `O=C(NCc1nnc2n1C(C(=O)NCc1ccc(F)cc1)CC2)Nc1cccnc1` (stereo not drawn), the activity change, negative = inhibition in assay [1] is -2.04%; in assay [2], -7.78%; in assay [3], 0.735%; in assay [4], -7.94%; in assay [5] it was -5.27%.
Take `C[C@]12CCC(=O)C=C1CC[C@@H]1[C@@H]2[C@@H](O)C[C@@]2(C)[C@H]1CC[C@]2(O)C(=O)CO`: the activity change, negative = inhibition in assay [1] was 2.37%; in assay [2] it was 9.79%; in assay [3] it was 4.82%; in assay [4], -3.92%; in assay [5], 4.43%.
On to `Cc1nc(C)n(CCNC(=O)[C@H]2CNC[C@@H](C(=O)N3CCOCC3)C2)n1`, for which the activity change, negative = inhibition in assay [1] is -0.109%; in assay [2], 2.47%; in assay [3], 1.67%; in assay [4], -2.61%; in assay [5] it was 1.89%.
In the same order, the values of `CNC(=O)[C@@H]1CN(C(=O)c2ccncc2)C[C@H]1CO` are -1.36%, 0.368%, 1.15%, 1.55% and 1.55%.
As to `C[C@H]1[C@@H]2[C@@H](O)C([C@H](C)C(=O)N3CCC(Cc4ccccc4)CC3)CC[C@@]2(C)CC[C@@H]1NC(=O)c1cnccn1` (stereo partly drawn), the activity change, negative = inhibition in assay [1] was -4.05%; in assay [2], -2.2%; in assay [3], -1.76%; in assay [4], -5.26%; in assay [5], -8.82%.
In the same order, the values of `COc1ccc(CNC(=O)C2(C)Cn3cnc(C(=O)NC4CCCCC4)c3C(=O)N2C2CC2)cc1` (stereo not drawn) are -0.03%, 0%, 12.5%, -1.1% and 3.21%.
Regarding `C/C(=C\CC/C(C)=C/CC[C@]1(C)CCc2cc(O)cc(C)c2O1)CC/C=C(\C)C(=O)O`, the activity change, negative = inhibition was -12.2% in assay [1]; -28.7% in assay [2]; -0.951% in assay [3]; -51.9% in assay [4]; -12.2% in assay [5].
Regarding `C=C1C(=O)O[C@H]2[C@H]1[C@@H](OC(=O)/C(C)=C\C)C[C@]1(C)O[C@@H]1[C@H]1O[C@H]1C(=C)[C@H]2O`, the activity change, negative = inhibition in assay [1] is -3.33%; in assay [2], 0.477%; in assay [3], 9.14%; in assay [4], -8.51%; in assay [5] it was -0.239%.
In the case of `CC1CCCN(c2ncnc3c2CN(c2ccc(Cl)cc2)C(=O)CN3C)C1` (stereo not drawn), the activity change, negative = inhibition was -8.29% in assay [1]; -7.25% in assay [2]; -3.17% in assay [3]; -31.1% in assay [4]; -0.799% in assay [5].
Regarding `CCCn1c(=O)c2ccc(Cl)cc2n2c(=O)n(CC(=O)Nc3ccc(OC)c(OC)c3)nc12`, the activity change, negative = inhibition was -1.01% in assay [1]; 5.71% in assay [2]; 0.19% in assay [3]; 2.82% in assay [4]; 1.03% in assay [5].
Take `CCOCCCNC(=O)C1c2c(n(C)c3ccccc23)SCC(=O)N1Cc1ccccc1Cl` (stereo not drawn): the activity change, negative = inhibition in assay [1] worked out at 7.3%; in assay [2], 1.86%; in assay [3] it was 3.38%; in assay [4], 1.96%; in assay [5], 7.7%.
Consider `CS(=O)(=O)c1ccc(S(=O)(=O)N2CCC3(CCCNC3)C2)cc1` (stereo not drawn), for which the activity change, negative = inhibition was -4.78% in assay [1]; -4.3% in assay [2]; 0.072% in assay [3]; -4.41% in assay [4]; -2.3% in assay [5].
As to `CC/C(=C(/CC)c1ccc(O)c(CN(CC)CC)c1)c1ccc(O)c(CN(CC)CC)c1`, the values for the activity change, negative = inhibition in assay [2], in assay [4] and in assay [5] were 8.07%, -1.53% and 6.36%, respectively.
As for `CN1C(=O)c2cc(C(=O)NCCCN3CCc4ccccc4C3)nn2CC1(C)C(=O)NCc1ccc(F)cc1` (stereo not drawn), the activity change, negative = inhibition in assay [1] was -11.3%; in assay [2] it was 0%; in assay [3], -16%; in assay [4], -5.14%; in assay [5], -8.36%.
In the same order, the values of `O=C1NCc2c1c1c3ccccc3[nH]c1c1[nH]c3ccccc3c21` are -29.7%, -7.35%, -12.9%, -20.6% and -20.6%.
Take `CCn1cc(S(=O)(=O)N2CCC(Cc3nncn3C)C2)cn1` (stereo not drawn): the activity change, negative = inhibition stood at 0.08% in assay [1]; 1.2% in assay [2]; 2.53% in assay [3]; 1.28% in assay [4]; 11.9% in assay [5].
Take `COc1ccccc1CNC(=O)C(C)n1ccc2cc(S(=O)(=O)N3CCCCC3)ccc21` (stereo not drawn): the activity change, negative = inhibition is 2.12% in assay [1]; 0.755% in assay [2]; 0.723% in assay [3]; -6.03% in assay [4]; 1.27% in assay [5].
For `N#Cc1ccc(-c2cnc3[nH]cc(NC(=O)c4cccnc4)c3c2)cc1`, the activity change, negative = inhibition in assay [1] was -4.95%; in assay [2], -44.9%; in assay [3], 5.34%; in assay [4], 123%; in assay [5], -87.2%.
Regarding `O=C(c1ccc2c(=O)nc3c(-c4ccccc4F)n[nH]n3c2c1)N1CCN(c2ccccc2)CC1`, the activity change, negative = inhibition is -17.1% in assay [1]; 4.11% in assay [2]; -1.55% in assay [3]; -2.63% in assay [4]; 0.894% in assay [5].
In the same order, the values of `COCCN1CC(CO)C2(CCN(Cc3cccc(OC)n3)CC2)C1` (stereo not drawn) are -5.83%, 0.75%, -2.98%, -2.41% and 0.197%.
For the molecule `COc1ccc(CCO[C@@H]2O[C@H](CO[C@@H]3OC[C@H](O)[C@H](O)[C@H]3O)[C@@H](O)[C@H](O)[C@H]2O)cc1`, the activity change, negative = inhibition is -1.28% in assay [1]; -8.57% in assay [2]; 1.25% in assay [3]; -18.1% in assay [4]; -6.18% in assay [5].

(Values after PubChem BioAssay AID1745853 (National Center for Advancing Translational Sciences (NCATS), 2022).)
